Source: publication PMC12136788
The other results are listed elsewhere or left out.

T1: UNK ZnF1-3 (human, UniProt Q9C0B0 31-174)
T1 sequence: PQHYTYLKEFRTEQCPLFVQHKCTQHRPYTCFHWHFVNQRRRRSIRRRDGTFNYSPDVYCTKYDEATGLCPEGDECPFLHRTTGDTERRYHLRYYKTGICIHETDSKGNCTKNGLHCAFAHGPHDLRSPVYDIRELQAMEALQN

B1: 12955530_12963200_418_CDS_ENSG00000085415_ENST00000262124|human|control|control (ssRNA)
RNA: GGGAGUUCUACAGUCCGACGAUCAGUAACAGAUGUUCUGCUAUCCACCAGAGUUGUCCUUUUAACCCAGUGGCUCUGUCCUCGCAGUUUAUCAUUUGAUUCUCCUACUAUUUCUUCCCAUACAGCAGCUGUUCGGUCAAAAGACAACAGAGGAUUGAGCAUCA
B2: 12044635_12044755_1381_3pUTR_ENSG00000065559_ENST00000353533|human|control|control (ssRNA)
RNA: GGGAGUUCUACAGUCCGACGAUCGUAUUACAAGGAUGCACGUUCUAGGUGACAGGAGUAUACAGACAUGAUGGAAACGAACACCAAUCUUAUUGCACAUGGUGUCUGGGCGAGCAAUAAAAACACUGUGAUACGGGAUGAAAACAACAGAGGAUUGAGCAUCA
B3: chr7:151048522:151048523:+_ENSG00000013374_ENST00000566856|hu_mus|hu_hu_hu_mus_True|8_78 (ssRNA)
RNA: GGGAGUUCUACAGUCCGACGAUCCUGUUUCUUAUUUAUUACGAUCUUGAUGUAAUUUUCUUGAAGUCCGAAAGUUUCAGCUAUUUGACACCUCAGGUCUCUACCAGUGACAUGCAAGCGGGUCUCCAACAAGUUUUUCUUAUCCAACAGAGGAUUGAGCAUCA
B4: 50251413_50251831_3075_CDS_ENSG00000165525_ENST00000546046|human|control|control (ssRNA)
RNA: GGGAGUUCUACAGUCCGACGAUCUCUUGAUAAAUCUGUGUCCUUUACGCUGCGGAAUAAGUCUUUUUCUCUUGCUGUUGCUUCUUUGGAAUGCAUGAAACUAUUCAAGGCUGUUUUUGCAGCUUUUCCCUUUUUCUGCACUCCCAACAGAGGAUUGAGCAUCA
B5: chr5:138643207:138643208:+_ENSG00000015479_ENST00000510056|hu_hu|motif|central (ssRNA)
RNA: GGGAGUUCUACAGUCCGACGAUCCAUCCUUCCAAGAGAUGCUGGCAUACUUAAAGACUGGGUAGCAGCAGCAAGAAGGCCGGUUCCUGCCGCAGACAGGUCACGCCCAUGACCCUGUGAGUCCCUACUGAGAGAUGACUGCUGCAACAGAGGAUUGAGCAUCA
B6: chr10:33221514:33221515:-_ENSG00000150093_ENST00000302278|perfect_dup|motif|central (ssRNA)
RNA: GGGAGUUCUACAGUCCGACGAUCAUUUGGCCCUGCUUGUAUACAUUCUCCGCAAGAUUUGGCAUUUGCUUUUAAACAUCGGUUUUUAUCUGUUUGGCCAAAUACAGAACAAAUCAAACUGAUCAAUCCAAUCCAGGAAACCAGCAACAGAGGAUUGAGCAUCA
B7: chr7:127792870:127792871:+_ENSMUSG00000030884_ENSMUST00000033176|mus_hu|FALSE|FALSE (ssRNA)
RNA: GGGAGUUCUACAGUCCGACGAUCUGUGAAAUGGUUCUGAACGAAGUAAUGUAACUCCUCUGAUGUCACUUUUCCAAUCCUAUAGUCAGGACAAUACAAGGGAUUAGCCAAGGCAUUCCGGUAAGCUGCUGCAUGCAAAUUUUCCAACAGAGGAUUGAGCAUCA
B8: chr15:81756291:81756292:-_ENSMUSG00000022476_ENSMUST00000023113|mus_hu|FALSE|FALSE (ssRNA)
RNA: GGGAGUUCUACAGUCCGACGAUCUCAGCUCCUCGGCAAUGGAGUCGUUGAGCUUCCUCUCAAACUGCCAAGGGGGGAUCCGGACGGUGUCCACCAUUUCCACCAGGACGAACAUCCCGGCCUGCGCUGGGGGCUCUGGGAACACAACAGAGGAUUGAGCAUCA
B9: 44150526_44150646_1865_CDS_ENSG00000106624_ENST00000223357|human|control|control (ssRNA)
RNA: GGGAGUUCUACAGUCCGACGAUCGCACCCCAGCACCUCCAGGCGCAUGCACAGGCUGCCAUUCCAGGUGAGUGGGUAGAUGCGGAUGAAACGAGCCACCACCGGCUCUGGGAGCUCACUCAGCACGGGUGUGUCCUUGUCCACCAACAGAGGAUUGAGCAUCA
B10: chr5:67447025:67447026:+_ENSMUSG00000037736_ENSMUST00000038188|mus_mus|motif|central (ssRNA)
RNA: GGGAGUUCUACAGUCCGACGAUCCUGCACCUAUAAGGAACCCACAUGCAAAGAACCGUCUAGCAUGGAAAUAAAUAAUUGCGGGUCAUACUCCAUAAGACACAGAAAAAGUUAUUGCUUACAUAACAGAGAAACACCUACCUGCAACAGAGGAUUGAGCAUCA
B11: chr4:76721835:76721836:+_ENSG00000138768_ENST00000264904|hu_mus|hu_hu_hu_mus_True|8_58 (ssRNA)
RNA: GGGAGUUCUACAGUCCGACGAUCGUUUGGCUGGGGUUUCUGAGACGCUCUGGAAUAUAACUCAUGUUUGCUAAUAAUCCUAGUUUCCUCUAUGAAAUUCUCUUUGCCAAUCCUCUUCUCUAUUAGUGUUUUAGCUUUCUCUUUCAACAGAGGAUUGAGCAUCA
B12: chr2:47387792:47387793:-_ENSG00000143933_ENST00000272298|hu_hu|hu_hu_hu_mus_True|8_8 (ssRNA)
RNA: GGGAGUUCUACAGUCCGACGAUCUAAGGACAAUGACAGUAAGAUAAGGGAAGAAAACAUGGAGGAAUGAAGUCCUAAUUACUAUACAUGCAUAUUUUUUGACAGUAGGGGGGGGGAACCUUUUACAUAAGUUACAAAAACAAACAACAGAGGAUUGAGCAUCA
B13: chr3:179287964:179287965:+_ENSG00000136518_ENST00000429709|hu_hu|FALSE|FALSE (ssRNA)
RNA: GGGAGUUCUACAGUCCGACGAUCUUUUAGAGGUGAAAUGGCCUCCAUAUUCUCCCUCGGAACACGCAGAGCAUUAGUAUCUAUGUAGUAGGUGGGACCGCCUUGUUUGCCUUUAUCGCCAUCUAUUUCCAUUAAUGUGCUUCCCAACAGAGGAUUGAGCAUCA
B14: chr14:72190480:72190481:+_ENSG00000197555_ENST00000381232|hu_mus|FALSE|FALSE (ssRNA)
RNA: GGGAGUUCUACAGUCCGACGAUCAAAUCCCACGGAGUUAAUGGUUCCUUCUGGCUUUUUCCAUCCAAUCAGAUAUUUGCUAGUGGCGCCCUGGCGAGGGUAGAAAGUCCUAGGUCCAGAGGAGGAUGAGGAAGAAGAGGAAAACAACAGAGGAUUGAGCAUCA

The binders below were run against T1, UNK ZnF1-3 (assay: nsRBNS (natural sequence RNA bind-n-seq); RBNS binding buffer (assumed for nsRBNS): 25 mM Tris pH 7.5, 150 mM KCl, 3 mM MgCl2, 0.01% Triton X-100, 500 ug/ml BSA, 20 U/ml SUPERase-In, 4 C; UNK is unkempt and MSI1 is Musashi-1; names of the RNAs are library labels; protein concentration not given here; high values mean tight binding).

| Binder | binding signal |
| --- | --- |
| B1 | 0.754 enrichment R |
| B2 | 1.55 enrichment R |
| B3 | 0.682 enrichment R |
| B4 | 0.253 enrichment R |
| B5 | 0.77 enrichment R |
| B6 | 1.09 enrichment R |
| B7 | 1.21 enrichment R |
| B8 | 1.15 enrichment R |
| B9 | 1 enrichment R |
| B10 | 1.95 enrichment R |
| B11 | 0.481 enrichment R |
| B12 | 2.37 enrichment R |
| B13 | 0.791 enrichment R |
| B14 | 2.19 enrichment R |
